Among the data in the antibiotic and cytotoxicity screens of Wong et al. (2023) are cytotoxicity call values, retold here.

Some of the results follow.

The test system of this experiment is HSkMC (human skeletal muscle cells). The experiment in a line: cytotoxicity call (relative viability < 0.9). The settings on record: 10 µM.
Take `C=CC(C1=CC(=O)C=CC1=O)c1ccccc1` (centres undefined): the cytotoxicity call is “inactive”.
Regarding `C[C@@H]1CN([C@H](C)CO)C(=O)c2cccc(NC(=O)c3cnccn3)c2O[C@@H]1CN(C)S(=O)(=O)c1ccc(F)cc1`, the cytotoxicity call was “inactive”.
In the case of `O=C(C[C@@H]1CC[C@H]2[C@@H](COC[C@H](O)CN2C(=O)Nc2ccc3c(c2)OCO3)O1)N1CCN(c2ccccc2)CC1` it was “inactive”; in that of `Cc1ccc(S(=O)(=O)N2C[C@@H](O)COC[C@@H]3O[C@@H](CC(=O)NCCCN(C)C)CC[C@H]32)cc1`, “inactive”; in that of `C[C@H]1CN([C@@H](C)CO)C(=O)Cc2cc(NC(=O)CCCCCC(=O)Nc3ccccc3N)ccc2O[C@H]1CN(C)Cc1ccc(-c2ccccc2)cc1`, “inactive”.
In the case of `NNC(=O)c1ccccn1`, the cytotoxicity call was “inactive”.
To `Cc1noc(C)c1S(=O)(=O)Nc1ccc2c(c1)C(=O)N([C@@H](C)CO)C[C@@H](C)[C@H](CN(C)S(=O)(=O)c1cccs1)O2` belongs “inactive”; to `COc1ccc(S(=O)(=O)N(C)C[C@H]2Oc3ccc(NS(=O)(=O)c4cn(C)cn4)cc3C(=O)N([C@@H](C)CO)C[C@@H]2C)cc1`, “inactive”; to `CN[C@@H]1[C@H](O[C@H]2[C@H](O[C@@H]3[C@@H](O)[C@H](O)[C@@H](NC(=N)N)[C@H](O)[C@H]3NC(=N)N)O[C@@H](C)[C@]2(O)CO)O[C@@H](CO)[C@H](O)[C@H]1O.CN[C@@H]1[C@H](O[C@H]2[C@H](O[C@@H]3[C@@H](O)[C@H](O)[C@@H](NC(=N)N)[C@H](O)[C@H]3NC(=N)N)O[C@@H](C)[C@]2(O)CO)O[C@@H](CO)[C@H](O)[C@H]1O`, “inactive”.
